According to ChEMBL document CHEMBL5724801, “EUbOPEN Chemogenomics Library - Multiplex” (2024):

Columns and labels:
Assay type in all cases: toxicity, cell-based
U2OS = test: Multiplex assay against U2OS; conditions: human
Outline: (§1)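 At seeding, live cells were stained with Hoechst33342, BioTracker Green Microtubule Cytoskeleton Dye, MitoTracker Red and Annexin V Alexa Fluor 680. After compound addition they were imaged on a CQ1 microscope at 37°C and 5% CO2, and CellPathfinder machine-learning gating sorted them into Hoechst high-intensity objects or normal cells, with normal cells further split into healthy, pyknosed or fragmented nuclei and pyknosed cells into mitotic or apoptotic. Tubulin, mitochondrial-mass and membrane-permeability phenotypes are given as per cents of cells with healthy nuclei.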

Fibroblast = test: Multiplex assay against human fibroblast; outline: as §1
HEK-293T = test: Multiplex assay against HEK293T; conditions: human; outline: as §1
[1] = 12 h, 1 µM, compound concentration 1 uM
[2] = 12 h, 10 µM, compound concentration 10 uM
[3] = 24 h, 1 µM, compound concentration 1 uM
[4] = 24 h, 10 µM, compound concentration 10 uM
[5] = 48 h, 1 µM, compound concentration 1 uM
[6] = 48 h, 10 µM, compound concentration 10 uM

| SMILES | Population Mitochondria Different-Phenotype (%) (U2OS; [2]) | Population Mitochondria Different-Phenotype (%) (U2OS; [4]) | Total Cell Count (U2OS; [5]) | Population Apoptotic (%) (Fibroblast; [3]) | Population Mitochondria Different-Phenotype (%) (Fibroblast; [5]) | Population Tubulin-Different-Phenotype (%) (Fibroblast; [5]) | Population Healthy Nuclei (%) (HEK-293T; [1]) | Population Tubulin-Different-Phenotype (%) (HEK-293T; [1]) | Population Healthy Nuclei (%) (HEK-293T; [2]) | Total Cell Count (HEK-293T; [3]) | Population Pyknosed Nuclei (%) (HEK-293T; [5]) | Population Tubulin-Different-Phenotype (%) (HEK-293T; [5]) | Total Cell Count (HEK-293T; [5]) | Population Tubulin-Different-Phenotype (%) (HEK-293T; [6]) | Total Cell Count (HEK-293T; [6]) | also measured |
| --- | --- | --- | --- | --- | --- | --- | --- | --- | --- | --- | --- | --- | --- | --- | --- | --- |
| CN(C)CCOc1ccc(/C(=C(/CCCO)c2ccccc2)c2ccc(O)cc2)cc1 | 3.64% and 80.41% | 10.07% and 72.29% | 950 and 306 | 6.52% and 21.21% | 14.29% and 3.23% | 7.59% and 23.5% | 58.82% and 15.57% | 8.64% and 26.92% | 39.81% and 6.43% | 536 and 166 | 12.67% and 46.57% | 3.23% and 44.86% | 1155 and 204 | 26.65% and 88.89% | 522 and 137 | Population Mitochondria Different-Phenotype (%) (U2OS; [1]): 0.28% and 14.39%; Population Mitochondria Different-Phenotype (%) (U2OS; [3]): 0.21% and 12.72%; Population Mitochondria Different-Phenotype (%) (U2OS; [5]): 0.24% and 12%; Population Membrane Permeable-Phenotype (%) (U2OS; [6]): 4.32% and 23.26%; Population Mitochondria Different-Phenotype (%) (U2OS; [6]): 3.46% and 55.81%; Total Cell Count (U2OS; [6]): 625 and 175; Population Healthy Nuclei (%) (HEK-293T; [4]): 46.03% and 14.06%; Population Healthy Nuclei (%) (HEK-293T; [6]): 62.3% and 20% |
| CN(C)Cc1cccc(NC(=C2C(=O)Nc3cc(C(N)=O)ccc32)c2ccccc2)c1 | 1.13% and 16.2% | 1.54% and 14.09% | – | – | 13.51% and 2.67% | – | 54.85% and 17.69% | 4.04% and 50% | – | 559 and 153 | – | 2.48% and 31.78% | 1086 and 171 | 5.89% and 45.64% | 800 and 254 | Population Fragmented Nuclei (%) (U2OS; [2]): 3.64% and 20.6%; Population Fragmented Nuclei (%) (U2OS; [4]): 2.98% and 15.64%; Population Fragmented Nuclei (%) (U2OS; [6]): 3.83% and 14.08%; Population Fragmented Nuclei (%) (Fibroblast; [2]): 15.09% and 3.82%; Population Fragmented Nuclei (%) (Fibroblast; [6]): 17.61% and 5.43% |
| CNc1nc(NCc2ncccn2)c2c(-c3ccc4ncccc4c3)c[nH]c2n1 | 1.36% and 17.16% | 0.53% and 13.22% | 1052 and 335 | 1.85% and 12.5% | – | 4.95% and 17.61% | 62.31% and 19.38% | 3.23% and 20% | 51.6% and 7.95% | 647 and 133 | 8.06% and 32.94% | 0.94% and 40% | 1327 and 171 | 1.92% and 59% | 602 and 185 | Population Apoptotic (%) (Fibroblast; [1]): 5% and 24.14%; Population Mitochondria Different-Phenotype (%) (Fibroblast; [6]): 17.09% and 2.97%; Population Mitochondria Different-Phenotype (%) (HEK-293T; [1]): 45.16% and 8%; Total Cell Count (HEK-293T; [1]): 399 and 129; Population Mitochondria Different-Phenotype (%) (HEK-293T; [2]): 37.27% and 7.14%; Population Pyknosed Nuclei (%) (HEK-293T; [4]): 22.12% and 68.25%; Population Apoptotic (%) (HEK-293T; [5]): 6.54% and 19.64%; Population Pyknosed Nuclei (%) (HEK-293T; [6]): 9.14% and 38.89% |

For part of its entries the source gives two or more results. Only these are listed. There may be further records. The values listed for one entry repeat one measurement in other runs, samples, wells, individuals or studies.
